Drawing on PubChem BioAssay (NCI), this text covers GI50 and TGI for 83 compounds.

The subject of this assay is NCI-H322M lung. The experiment in a line: inhibition of tumour cell growth, NCI panel, 48 h.

Structures are written as SMILES.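 Cells were grown in 96-well plates and exposed to each compound for 48 hours at five concentrations; endpoints were interpolated linearly between bracketing concentrations, or set to the highest concentration if not reached. GI50 marks 50% less growth. TGI: concentration producing complete growth inhibition.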 Where only a bound is given, the exact number is not on record here.

As for `CC[C@@]1(OC(=O)CN)C(=O)OCc2c1cc1n(c2=O)Cc2cc3c(N)cccc3nc2-1`, the GI50 was 0.0278 µM.
In the case of `O=C1C=CC[C@H](/C=C/c2ccccc2)O1`, the GI50 is 3.84 µM and the TGI is greater than 72.8 µM.
In turn, `O=C(c1ccccc1)N1OCCC1Nc1ccc(Br)cc1` (configuration not stated) yielded a TGI greater than 10 µM.
Regarding `Cc1[nH]c(=O)n2c(C)nnc2c1C(=O)Nc1cc(Cl)cc(Cl)c1`, the TGI was greater than 100 µM.
The same measure, in the same setting: the figure for `O=c1nc(NC(c2ccccc2)(c2ccccc2)c2ccccc2)ccn1CCNCCn1ccc(NC(c2ccccc2)(c2ccccc2)c2ccccc2)nc1=O` is 35.5 µM.
With `C=C1C(=O)O[C@H]2[C@H]1CCC(/C=N/c1ncc(Br)cc1N)=C\CC[C@@]1(C)O[C@@H]21`, the GI50 is 10.3 µM and the TGI turned out to be 22.2 µM.
As to `NC(=S)N/N=C1/CCCC2CCCC[C@@H]12` (some centres not stated), the TGI was greater than 100 µM.
The same measure, in the same setting: with `Nc1c(C(=O)Nc2ccc(C3=NCCN3)cc2)cccc1C(=O)Nc1ccc(C2=NCCN2)cc1` the figure was greater than 100 µM.
On to `S=c1ssc(Oc2ccccc2)c1Cl`, for which the GI50 was 15.2 µM and the TGI stood at 30 µM.
Compound `CN1CC[C@]2(C)c3cc(O)ccc3CC3CCCC1C32C` (some centres not stated) gave a TGI greater than 100 µM.
As to `CCCCCCCCCCCCOC1C(C(COC2OC(C3COC(C)(C)O3)C3OC(C)(C)OC23)NC(=O)NS(=O)(=O)c2ccccc2)OC2OC(C)(C)OC21` (configuration not stated), the GI50 was 7.55 µM and the TGI turned out to be 22.9 µM.
For the compound `CCN(CC)CCn1c2ccccc2c(=O)c2c(O)ccc(O)c21`, the TGI worked out at 72.9 µM.
On to `CCN1C(=O)N(c2ccccc2)C2NC(=S)N(/N=C/C=C/c3ccccc3)C21` (configuration not stated), for which the GI50 is 0.717 µM and the TGI was greater than 100 µM.
For the compound `CCN1Cc2c(ccc(F)c2C#N)O[C@@H](C)CNC(=O)c2c(N)nn3ccc1nc23`, the GI50 is 3.02 µM and the TGI was 36.2 µM.
Take `CC(O)c1ccc[n+](Cc2ccccc2)c1` (configuration not stated): the TGI is greater than 400 µM.
Take `Cn1ccc2c(C(=O)c3ccccc3)cccc2c1=O`: the TGI was greater than 100 µM.
Take `CC1(C)OC(CP(c2ccccc2)c2ccccc2)C(CP(c2ccccc2)c2ccccc2)O1` (configuration not stated): the TGI was greater than 100 µM.
As for `Oc1[nH]c2c(Br)cccc2c1C1=Nc2ccccc2/C1=N/OCCN1CCCC1`, the GI50 was 0.943 µM.
In turn, `CN1C(=O)C(c2c[nH]c3ccccc23)N(C)C(=O)C1c1c[nH]c2ccccc12` (configuration not stated) registered a TGI greater than 100 µM.
As to `COC(=O)CCC1CCC(c2cc(F)ccc2F)(S(=O)(=O)c2ccc(Cl)cc2)CC1` (configuration not stated), the GI50 is greater than 100 µM and the TGI is greater than 100 µM.
In the case of `CCC[CH2][Sn]([CH2]CCC)([CH2]CCC)[O]C(=O)c1ccc(Cl)cc1Cl`, the GI50 was 0.165 µM and the TGI stood at 0.33 µM.
On to `C[C@]12C[C@@H](c3ccccc3)Nc3ccccc3N1C(c1ccccc1)=NO2`, for which the TGI is greater than 100 µM.
`CSc1sc(=S)sc1C(=O)N(C)c1ccccc1`: the TGI was greater than 100 µM.
On the same count and under the same terms, with `O=C(O)CNS(=O)(=O)c1ccc(NC(=O)CI)cc1` the figure was greater than 100 µM.
`COc1ccc(C2=NN(C(N)=S)C(c3ccccc3)C2)cc1` (configuration not stated) displayed a TGI greater than 100 µM.
On to `Nc1nc(N)c2c(n1)NC(c1ccc(F)cc1)C1CCc3ccccc3C1=N2` (configuration not stated), for which the GI50 was 9.63 µM and the TGI was 21.8 µM.
Compound `O=C(O)c1cc(-c2ccncc2)nc2ccccc12` came in with a TGI greater than 100 µM.
In the case of `O=C1C=CC2(O)OCCN(CCO)C2=C1` (configuration not stated) (tested in a mixture with another compound), the TGI was greater than 100 µM.
As for `CN(C)CCNC(=O)c1cccc2[nH]c(-c3cccnc3)nc12`, the TGI worked out at 72.5 µM.
In turn, `CN(C)C=[N+]=[N-]` came in with a TGI greater than 100 µM.
Turning to `CN(C)CCCN1c2ccccc2C(C)(C)c2ccccc21`, the TGI stood at 28.6 µM.
Regarding `C=C1C(=O)O[C@H]2[C@H](OC(C)=O)[C@@H](C)CCC/C(C)=C/CC[C@@]3(C)O[C@@H]3C[C@@H]12`, the TGI turned out to be 20.4 µM.
As to `O=P(CCCCP(=O)(c1ccccc1)c1ccccc1)(c1ccccc1)c1ccccc1.[Cl][Sn]([Cl])([c]1ccccc1)[c]1ccccc1`, the GI50 is 7.65 µM and the TGI turned out to be 21.2 µM.
Turning to `COc1cc(/C=N/NC(=O)c2cnn3c2NC(c2ccccc2)C3)ccc1Oc1ccccc1` (configuration not stated), the GI50 was 1.69 µM and the TGI was 9.87 µM.
On the same counts, the results for `Cc1ccc2c(c1)C(C)Cc1c(Cl)ncnc1N2C` (configuration not stated) are 2.41 µM and 21 µM.
`COc1c(Br)cc(/C=C(\C#N)c2cccnc2)cc1Br`: the TGI is greater than 100 µM.
Consider `O=c1oc2cc(N=Cc3ccc4c(c3)OCO4)ccc2c2ccccc12`, for which the TGI is greater than 100 µM.
The same measure, in the same setting: the figure for `CC(C)(C)C(=O)CP(=O)(O)O` is greater than 100 µM; for `COc1cccc(-c2nc3ccccc3c(=O)[nH]2)c1OC` it is greater than 100 µM.
Same read-out and setting: with `Cc1ccc(C)n1-c1ccccc1C1C=CN(C(=O)OC(C)(C)C)C=C1` the figure was greater than 100 µM.
Take `COc1cc(-n2cc(-c3ccc(Cl)cc3)nc2SCc2cccc(C#N)c2)cc(OC)c1OC`: the GI50 is 36 µM and the TGI is greater than 100 µM.
In turn, `NC(=O)C1Cc2cc3c(cc21)OCO3` (configuration not stated) displayed a TGI greater than 100 µM.
With `O=C1C2C(c3ccccc3)NC(c3ccccc3)C1C(c1ccccc1)NC2c1ccccc1` (configuration not stated), the TGI was greater than 100 µM.
The same measure, in the same setting: the figure for `Cc1ccc(C(=O)Nc2ccc(CP(=O)(O)O)cc2CP(=O)(O)O)cc1NC(=O)c1cccc(NC(=O)Nc2cccc(C(=O)Nc3cc(C(=O)Nc4ccc(CP(=O)(O)O)cc4CP(=O)(O)O)ccc3C)c2)c1` is greater than 100 µM.
Regarding `CN(C)CC1CCCC(CN(C)C)C1=NOC(=O)c1ccccc1` (configuration not stated), the TGI is greater than 100 µM.
With `OC(CNCC1CCCO1)Cn1c2ccc(Cl)cc2c2cc(Cl)ccc21` (configuration not stated), the GI50 is 2.5 µM and the TGI amounted to 7.17 µM.
`COc1ccccc1N1CCN(CCc2c[nH]c3cc4c(cc23)OCO4)CC1`: the GI50 was 23.3 µM and the TGI is greater than 100 µM.
`Cc1ccc(C2SC(N)=Nc3c2c(C)nn3C(=O)c2ccccc2O)cc1` (configuration not stated) showed a TGI greater than 10 µM.
With `Clc1ccc2nnnn2n1`, the GI50 is 9.23 µM and the TGI was 30.3 µM.
`COc1ccc(N2C(=O)C(C)SC2c2cc3cc(Br)ccc3nc2Cl)cc1` (configuration not stated): the TGI was greater than 100 µM.
For the compound `C[n+]1c2ccccc2c(NC(CS)C(=O)O)c2ccccc21` (configuration not stated), the TGI was greater than 100 µM.
For `Cc1cc(=O)[nH]c2cc3c(c4c(n3Cc3ccc(Cl)cc3Cl)CC(C)(C)CC4=O)c(O)c12`, the GI50 was greater than 100 µM and the TGI is greater than 100 µM.
On to `O=C(O)CCSC(=O)Nc1ccccc1F`, for which the TGI was greater than 100 µM.
On the same count and under the same terms, the figure for `O=C(O)C1C(C(=O)O)C23CC2(C(=O)O)C2(C(=O)O)CCC3=C3CCCC312` (configuration not stated) is greater than 100 µM; for `CCOC(=O)/C(=C\c1cccs1)P(=O)(OCC)OCC` it is greater than 100 µM; for `C[n+]1ccc(Nc2ccc(NC(=O)c3ccc(Nc4cc[n+](C)c5ccc([N+](=O)[O-])cc45)cc3[N+](=O)[O-])cc2)cc1` it is greater than 100 µM.
For the compound `CCCCCCCCCCCCCCCCOCC(CP(=O)([O-])OCC[n+]1ccccc1)OC` (configuration not stated), the TGI is 33.5 µM.
Still for that read-out and setting: with `O=Cc1ccccc1B(O)O` the figure was greater than 100 µM.
As for `CNCCNc1c2c(c(NCCNC)c3[nH]ccc13)C(=O)c1ccccc1C2=O`, the GI50 is 0.0779 µM and the TGI was determined as 0.375 µM.
The compound `COc1ccc(S(=O)(=O)N/N=C/c2cc(I)cc([N+](=O)[O-])c2O)cc1OC` showed a TGI greater than 100 µM.
In turn, `CCOC(=O)[C@@H]1CCN2CN(c3ccc(OC)cc3)N=C(c3ccccc3)[C@@]12c1ccccc1` showed a TGI greater than 100 µM.
For the compound `COC(=O)C1=C(C(=O)OC)SC(=C(Cl)C(=S)Nc2ccccc2O)S1`, the GI50 is 0.682 µM and the TGI is greater than 50 µM.
`COC(=O)[C@]12CC=C3O[C@@H]4OC5(CCCCC5)O[C@@H]4C3[C@@H]1C(=O)CCC2=O` (some centres not stated) gave a TGI greater than 100 µM.
Consider `C[N+]1(C)C/C(=C\c2ccccc2)C(=O)/C(=C/c2ccccc2)C1`, for which the TGI is greater than 100 µM.
The same measure, in the same setting: with `COc1ccc(/C=C2\N=C(SC)N(CN3CCCCC3)C2=O)cc1` the figure was greater than 100 µM; with `C#C[C@]1(O)CC[C@H]2[C@@H]3CCC4=C/C(=N/NC(=O)c5cccc6cc7ccccc7nc56)CC[C@@H]4[C@H]3CC[C@@]21CC`, greater than 100 µM; with `O=C(Nc1ccccc1)n1[nH]c(=O)n(-c2ccccc2)c1=O`, greater than 100 µM.
`CC1=NN(C(=O)CC(=O)NC(=O)CC(=O)Nc2ccccc2F)C(=O)C1N=Nc1ccc([N+](=O)[O-])cc1` (configuration not stated) came in with a TGI greater than 100 µM.
On the same count and under the same terms, with `CCOC(=O)/C(=C\c1ccc(C#N)cc1)C(C)=O` the figure was greater than 100 µM.
For `C=C(C)[C@@H]1CC[C@]2(C)[C@H](CC=C3[C@@H]4[C@@H](C)[C@H](C)CC[C@]4(C(N)=O)CC[C@]32C)[C@@]1(C)CCC#N`, the GI50 was 7.13 µM and the TGI was greater than 100 µM.
In the case of `COc1ccc(OC2OC(COC(c3ccccc3)(c3ccc(OC)cc3)c3ccc(OC)cc3)C(O)C(O)C2O)cc1` (configuration not stated), the TGI is 19.3 µM.
Take `Cc1ccc(/C=C2\CN(C)CC3C2=NN(c2ccccc2)C3c2ccc(C)cc2)cc1` (configuration not stated): the TGI is greater than 100 µM.
The compound `Nc1nc2n[nH]nc2c(=O)[nH]1` had a TGI greater than 100 µM.
`Oc1ccc(Cc2nccc3cc(O)c(O)cc23)cc1O` displayed a TGI greater than 100 µM.
In the case of `N#CC1=C(N)Oc2c(sc3c(Br)cccc23)C1c1ccc(Br)cc1` (configuration not stated), the GI50 was 4.79 µM and the TGI amounted to 24 µM.
The compound `C=C1C(=O)OC2C=C(CCC(C)=O)C(C)C(OC(C)=O)CC12` (configuration not stated) showed a TGI of 37.7 µM.
Compound `C/C=C(\C)C(=O)OC1C(C)=C2C(C1OC(=O)CCCC)C(C)(OC(C)=O)CC(OC(=O)CCCC)C1(O)C2OC(=O)C1(C)O` (configuration not stated) showed a TGI greater than 53.8 µM.
`COc1ccc(NC(=O)COCCOCCNC[C@@H]2C(=O)O[C@H]3[C@H]2CC/C(COC(=O)OC/C2=C/CC[C@@]4(C)O[C@H]4[C@H]4OC(=O)[C@@H](CN(C)C)[C@@H]4CC2)=C\CC[C@@]2(C)O[C@@H]32)c(O)c1C(N)=O`: the GI50 is greater than 50 µM and the TGI is greater than 50 µM.
Regarding `COc1cc2c(cc1OC)[C@H]1C(COC(=O)c3ccccc3)CSC(=Nc3ccccc3)N1CC2` (some centres not stated), the TGI is greater than 100 µM.
Regarding `C[C@]12CCC(=O)C(O)=C1CC[C@@H]1C2CC[C@]2(C)Nc3c(cnn3-c3ccccc3)CC12` (some centres not stated), the TGI was greater than 100 µM.
Turning to `Cc1ccc2nc(-c3ccccc3)c(N=O)n2c1`, the TGI is greater than 100 µM.
Regarding `COc1ccc(S(=O)(=O)Nc2cc(/C=C\c3cc(OC)c(OC)c(OC)c3)ccc2OC)cc1`, the GI50 was 0.43 µM and the TGI was greater than 100 µM.
As to `O=C(Nc1ccc2[nH]c(=S)sc2c1)Nc1ccccc1F`, the GI50 was 23.3 µM and the TGI was greater than 100 µM.
